The campaign covered roughly 48,000 compounds. About 120 (0.25%) were called active. About 4% were inconclusive and are not listed. Calls follow the shape of the dose curve; as a rule, active = well fitted activation curve with a large enough effect; inconclusive = small, poorly fitted or top-dose-only effect, or another doubt; inactive = no such curve, though single readings can be large or run the other way. Some of the results follow.
Test: Primary qHTS for Identification of Small Molecule Activators of Huntingtin-Antisense Promoter Activity; also: nearly all actives have a fitted effect of over 55% in size
Conditions: HEK293 HTT-AS promoter firefly luciferase reporter, 24 h; series mostly up to 57.5 µM; activity change, positive = activation: at the top concentration
In short: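 HEK293 Fluc reporter, 2,500 cells/well, 24 h pre-culture; cpds up to 57.5 uM final, 24 h 37 degrees C; Dual-Glo, 10 min RT; normalized vehicle = 0%, zero RLU = -100%.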

Activity change, positive = activation, inactive:
COc1ccc(Cl)cc1C(=O)NCC(c1ccc(N(C)C)cc1)N1CCCC1 (stereo not given) 1.05%, C[N+](C)(C)CC[N+]1(C)Cc2c(Cl)c(Cl)c(Cl)c(Cl)c2C1 0.491%, Cc1ccc(NC(=O)C2CCCN(S(=O)(=O)c3ccc4c(c3)CCCC(=O)N4)C2)cc1N(C)C (stereo not given) -33%, O=C(Cn1c(-c2cccs2)cc2cc(Cl)ccc21)N1CCCCC1 -19.6%, Cc1ccc(C)c(NC(=O)Cn2c(=O)n(CCCS(=O)(=O)C3CCCCC3)c(=O)c3ccccc32)c1 -21.3%, Cc1ccc(-c2ccc(CCC(=O)O)n2-c2ccc(C)c(Cl)c2)cc1 13.9%, O=C1CCSC2(C(=O)N(Cc3ccccc3)c3ccccc32)N1c1ccccc1 (stereo not given) -43.1%, CCCCOc1ccc(S(=O)(=O)n2nc(C)c(S(=O)(=O)N3CCCCCC3)c2C)cc1 -9.8%, O=C(NCCCN1CCN(c2ccccc2F)CC1)c1sc2ncccc2c1-n1cccc1 -19.2%, CC(=O)N1c2ccc(S(=O)(=O)NCC3CCC(C(=O)Nc4cccc(C)c4)CC3)cc2CC1C (stereo not given) -33.8%, Cc1cc(S(=O)(=O)NCCc2csc(-c3cccc(F)c3)n2)ccc1F -36.8%, CCCC(=O)OC1=C(C(C)=O)N(Cc2ccccc2)S(=O)(=O)c2ccccc21 -23.8%, CCc1ccc2nc(N3CCC(C(=O)NCCC(C)C)CC3)sc2c1 -15.4%, CCCCNC(=O)c1cnc2c(-c3ccc(OCC)c(OCC)c3)c(C)nn2c1-c1ccccc1 -11.8%, CCN(Cc1ccccc1)S(=O)(=O)c1ccc(N2CCCCS2(=O)=O)cc1 -25.1%, O=C(CCS(=O)(=O)c1cc2c(cc1Cl)NC(=O)CO2)NCc1ccccc1 -8.18%, COc1ccc(C(=O)Nc2nc(-c3nnn(-c4cc(OC)ccc4OC)c3C)ns2)cc1 -21.8%, Cc1ccc(OCc2cc(=O)n3c(-c4ccccc4)csc3n2)cc1 -1.6%, O=C(Cn1nnc(-c2cccc(C(F)(F)F)c2)n1)NCc1ccc(F)cc1 -11.8%, CCc1ccc(CNC(=O)c2cc3cc4ccc(OC)cc4nc3o2)cc1 -6.28%, Cc1ccc(NC(=O)C(=O)NCC(c2ccc3c(c2)OCO3)N2CCN(C)CC2)cc1C (stereo not given) -11.3%, Cc1c(C(=O)Oc2ccc(Br)cc2)sc2ncn(Cc3ccccc3F)c(=O)c12 -2.95%, COc1ccc(-c2cc(C(=O)NCc3ccc(C)cc3)c3cc(C(C)C)ccc3n2)cc1 -2.34%, CCN(CC)S(=O)(=O)c1ccc2c(c1)c(=O)c(C(=O)N1CCN(c3ccccc3OC)CC1)cn2C -3.78%, CC(C)CCNC(=O)Cn1cc(S(=O)(=O)Cc2ccc(F)cc2)c2ccccc21 -36.4%, COc1cc(NC(=O)Nc2c[nH]c(=O)[nH]c2=O)cc(OC)c1OC -4.87%, CC(=O)OCC(CCn1cnc2cnc(N)nc21)COC(C)=O, COc1ccc(CCNC(=O)c2cc3c(=O)n4ccccc4nc3n2C)cc1 -0.473%, COc1ccc(NC(=O)Cn2cc(S(=O)(=O)c3ccccc3)c(=O)c3cc(C)ccc32)cc1Cl -5.12%, CCc1ccc(NC(=O)CSC2=Nc3ccccc3C3=NC(CC(=O)NCc4cccs4)C(=O)N23)cc1 (stereo not given) -31.8%, COc1cccc(N2CCN(C(=O)c3ccc4c(Cl)c5c(nc4c3)CCCC5)CC2)c1 -20%, C[C@H](CN1CCCC1)C(=O)c1ccc(C(F)(F)F)cc1 -10.2%, CCC(=O)N1CCc2cc(Br)cc(S(=O)(=O)N3CCC(C(=O)Nc4cccc(C)c4)CC3)c21 -27.9%, CCC(Cn1nnc2ccccc2c1=O)NC(=O)Nc1cc(OC)cc(OC)c1 (stereo not given) -9.4%, Cc1cc2c(cc3c(SCc4cccc(Cl)c4)nnc(C)n32)o1 11.5%, CCc1cccc(C)c1NC(=O)c1cc2ccccc2o1 -19.1%, O=C(NCc1ccccc1)c1ccc(CSc2nc3cccnc3n2Cc2ccccc2)cc1 -34%, Cn1cc(S(=O)(=O)c2ccccc2)c(=O)c2cc(F)c(N3CCCC3)cc21 -13.5%, COc1cccc(NC(=O)Cn2nc(-c3ccncc3)ccc2=O)c1 -7.04% [at 11.5 µM, percent change from vehicle, -100% = no light], CNC(=O)C1CCC(Cn2c(=O)c3sccc3n(CC(=O)Nc3cc(C)cc(C)c3)c2=O)CC1 (stereo not given) -8.29%, O=C(c1c[nH]c2ccc(S(=O)(=O)Nc3ccccc3F)cc2c1=O)N1CCCCCC1 -20.9%, CC(C)c1ccc(C(=O)CC2(O)C(=O)N(CCc3ccccc3)c3ccc(Cl)cc32)cc1 (stereo not given) -28.6%, CCOc1ccc(NC(=O)C(=O)NCCc2sc(-c3ccc(C)cc3)nc2C)cc1 0.203%, COc1ccc(OC)c(NC(=O)C2CCN(S(=O)(=O)c3c(C)noc3/C=C/c3ccc(C)cc3)CC2)c1 -9.46%, CC1CCCCN1CCCNC(=O)c1sc2ncccc2c1-n1cccc1 (stereo not given) 10.9%, Cc1ccc(C(=O)Nc2cc(-c3nc4cc(Cl)ccc4o3)ccc2C)c(C)c1 20.7%, O=S(=O)(NCc1csc(-c2ccccc2)n1)c1ccccc1 -7.38%, COc1ccc(Cn2c(CNS(=O)(=O)c3ccc(Cl)s3)nc3cccnc32)cc1 -22%, Cc1cccc(Cn2c(CN3CCC(C(=O)NCc4ccccc4Cl)CC3)cc3ccccc32)c1 -12.7%, CCCN1C(=O)c2[nH]nc(-c3ccc(OC)cc3)c2C1c1ccccn1 (stereo not given) -17.5%, COC(=O)c1sc(N2C(=O)c3oc4cc(C)c(C)cc4c(=O)c3C2c2ccccc2F)nc1C (stereo not given) -19.5%, C=CC(=O)Nc1cccc(Oc2nc(Nc3ccc(N4CCN(C)CC4)cc3OC)ncc2Cl)c1 -32%, CCOCCCNC(=O)C1CCN(c2nc3ccc(Cl)cc3[nH]2)CC1 8.13%, COc1ccc(CN2CCc3nc(N4CCN(c5ccc(F)cc5)CC4)ncc3C2)c(OC)c1OC -57%, O=C(c1cnn(-c2ccc(F)cc2)c1-n1cccc1)N1CCN(c2cccc(Cl)c2)CC1 -5.85%, O=c1c2cccnc2n(Cc2ccc(Cl)cc2)c(=O)n1Cc1ccc(F)cc1 0.212%, CNC(=O)c1cccc(-n2c(C)nc3cccnc32)c1C 8.01%, CCCSc1nnc(NC(=O)Cc2coc3cc(C)ccc23)s1 -24.7%, CC(=O)c1ccc(NC(=O)CSc2nc3c(=O)n(C)c(=O)n(C)c3n2C)cc1 25.1%, CC(=O)Nc1ccc(S(=O)(=O)N2CCN(c3ccc(C)c(C)c3)CC2)cc1 -30%

Reference: PubChem BioAssay AID1508624 (National Center for Advancing Translational Sciences (NCATS), 2021)
